In all, about 39,000 compounds went through this assay and about 220 (0.56%) showed activity. Some of the results follow.
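Also: static incubation at 37 °C against the wild-type strain, values averaged over two biological replicates.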

The subject of the assay is Escherichia coli K-12 BW25113. Kind of assay: relative growth (OD600 normalised to plate interquartile mean) (fraction); higher = less growth inhibition, active = 0.2 or less. The note with it: 50 µM; LB; incubation time: overnight (16-24 h).
`COc1ccc(NC(=O)N(C)C[C@H]2Oc3ccc(NC(=O)CCCCCC(=O)Nc4ccccc4N)cc3C(=O)N([C@@H](C)CO)C[C@@H]2C)cc1`: the relative growth was inactive: 0.957.
Consider `C[C@@H]1CCCCO[C@@H](CN(C)Cc2ccc(Cl)c(Cl)c2)[C@H](C)CN([C@@H](C)CO)C(=O)c2cc(NS(=O)(=O)c3ccccc3)ccc2O1`, for which the relative growth was inactive: 1.05.
Consider `C[C@H]1CN([C@@H](C)CO)C(=O)c2cccc(NC(=O)Nc3ccc(C(F)(F)F)cc3)c2O[C@@H]1CN(C)S(=O)(=O)c1ccc(F)cc1`, for which the relative growth is inactive: 0.804.
In the case of `C[C@@H]1CN([C@H](C)CO)C(=O)CCCn2nncc2CO[C@@H]1CN(C)C(=O)c1ccc(N2CCN(C)CC2)cc1` it was inactive: 1.01; in that of `C[C@@H]1CN([C@@H](C)CO)C(=O)c2cccc(NC(=O)Nc3ccccc3)c2O[C@@H]1CN(C)Cc1ccc(C(F)(F)F)cc1`, inactive: 1.01.
In the case of `CO[C@H]1CN(C)C(=O)c2cc(NC(=O)NC3CCCCC3)ccc2OC[C@@H](C)N(CCc2ccccc2)C[C@H]1C` it was inactive: 1.02.
In the case of `C[C@H]1CN([C@@H](C)CO)C(=O)c2cccc(NC(=O)C3CCCCC3)c2O[C@@H]1CN(C)C(=O)Nc1ccc(C(F)(F)F)cc1` it was inactive: 0.856; in that of `C[C@H](CO)N1C[C@H](C)[C@@H](CN(C)S(=O)(=O)c2cn(C)cn2)Oc2ccc(NC(=O)CCCN(C)C)cc2C1=O`, inactive: 0.939.
Turning to `CC(C)NC(=O)[C@@H](N)c1ccccc1`, the relative growth is inactive: 0.912.
In the case of `Cc1ccc(S(=O)(=O)Nc2ccc3c(c2)C(=O)N([C@@H](C)CO)C[C@@H](C)[C@H](CN(C)CC2CCCCC2)OCCCC[C@H](C)O3)cc1` it was inactive: 0.961; in that of `C[C@@H]1CN([C@H](C)CO)C(=O)Cc2cc(NS(=O)(=O)c3cn(C)cn3)ccc2O[C@H]1CN(C)S(=O)(=O)c1ccc(F)cc1`, inactive: 0.962; in that of `CC1(C(=O)O)CCC2(C)CCC3(C)C(=CC(=O)C4C5(C)CCC(O)C(C)(C)C5CCC43C)C2C1` (stereo not drawn), inactive: 0.894.
In the case of `C[C@H]1CN([C@@H](C)CO)S(=O)(=O)c2ccc(C#Cc3cccnc3)cc2O[C@H]1CN(C)CC1CCOCC1` it was inactive: 1.02.
In the case of `C[C@@H]1CN([C@@H](C)CO)C(=O)c2cccc(NS(C)(=O)=O)c2O[C@@H]1CN(C)C(=O)NC1CCCCC1`, the relative growth is inactive: 0.968.
The figure for `CCN1C(C)(C)CC(Oc2ccc(C(=O)Nc3ccc(NC(=O)Nc4cc(C(C)(C)C)on4)cc3)nc2)CC1(C)C` is inactive: 0.844; for `CN(Cc1cnc2nc(N)nc(N)c2n1)c1ccc(C(=O)N[C@@H](CCC(=O)O)C(=O)O)cc1` it is inactive: 1.01; for `C[C@@H]1CCCCO[C@H](CN(C)C(=O)Nc2ccc(C(F)(F)F)cc2)[C@H](C)CN([C@@H](C)CO)C(=O)c2cc(NS(=O)(=O)c3cccs3)ccc2O1` it is inactive: 0.961.
On to `C[C@@H]1CN([C@H](C)CO)C(=O)c2c(c3ccccc3n2C)-c2ccccc2CO[C@@H]1CN(C)C(=O)Nc1ccc(F)cc1`, for which the relative growth was inactive: 1.01.
In the case of `Cc1ccc(S(=O)(=O)Nc2ccc3c(c2)C(=O)N([C@@H](C)CO)C[C@H](C)[C@H](CN(C)C(=O)Nc2cccc4ccccc24)O3)cc1` it was inactive: 1.01; in that of `C[C@@H]1CN([C@H](C)CO)C(=O)c2cc(-c3ccncc3)cnc2O[C@@H]1CN(C)S(=O)(=O)c1ccccc1`, inactive: 0.959.
In the case of `C[C@H](CO)N1C[C@H](C)[C@@H](CN(C)Cc2ccc(-c3ccccc3)cc2)Oc2ccc(NS(=O)(=O)c3ccc(Cl)cc3)cc2C1=O`, the relative growth is inactive: 1.05.
Turning to `C[C@@H]1CN([C@@H](C)CO)C(=O)CCCn2cc(nn2)CO[C@@H]1CN(C)S(=O)(=O)c1ccc(Oc2ccccc2)cc1`, the relative growth is inactive: 1.04.
In the case of `CN(C)CCCCCCNC(=O)[C@@H]1C[C@@H]2C(=O)N[C@@H](CCCC[N+](C)(C)C)C(=O)N2[C@@H]1c1cccc(OCCO)c1` it was inactive: 1.01; in that of `C[C@@H]1CCCCO[C@H](CN(C)C(=O)NC2CCCCC2)[C@@H](C)CN([C@H](C)CO)C(=O)c2cc(NC(=O)CCCCCC(=O)Nc3ccccc3N)ccc2O1`, inactive: 0.958.
The figure for `CC(C)NC(=O)N(C)C[C@@H]1Oc2c(NS(=O)(=O)c3ccccc3)cccc2C(=O)N([C@@H](C)CO)C[C@H]1C` is inactive: 0.949; for `N#CCC(=O)N1CCCCC1` it is inactive: 0.992.
In the case of `COc1ccc(S(=O)(=O)Nc2cccc3c2O[C@H](CN(C)S(=O)(=O)c2cccs2)[C@@H](C)CN([C@@H](C)CO)C3=O)cc1` it was inactive: 1; in that of `CCCNC(=O)N1C[C@@H](C)[C@@H](OC)CN(C)C(=O)c2ccc(NS(=O)(=O)CC(F)(F)F)cc2OC[C@H]1C`, inactive: 0.985.
Regarding `Cc1ccc(S(=O)(=O)Nc2ccc3c(c2)C(=O)N(C)[C@H]2CC[C@H](CC(=O)NCCc4ccncc4)O[C@H]2CO3)cc1`, the relative growth is inactive: 1.
The figure for `COc1cccc(S(=O)(=O)N2C[C@@H](O)COC[C@@H]3O[C@@H](CC(=O)N4CCN(c5ccccc5)CC4)CC[C@H]32)c1` is inactive: 0.977; for `Cc1ncc[nH]1` it is inactive: 1.03; for `C[C@H](CO)N1C[C@H](C)[C@@H](CN(C)S(C)(=O)=O)Oc2cc(-c3ccccc3F)ccc2S1(=O)=O` it is inactive: 0.983.
The figure for `C[C@H]1CN([C@@H](C)CO)C(=O)CCCn2cc(nn2)CO[C@@H]1CN(C)C(=O)Nc1cccc(C(F)(F)F)c1` is inactive: 0.984.
The figure for `NCCCCCCNC(=O)[C@@H]1C[C@@H]2C(=O)N3CCC[C@H]3C(=O)N2[C@@H]1c1cccc(OCCO)c1` is inactive: 0.999.
Consider `Cc1ccc(N(c2ccc(C)cc2)c2cccnc2)cc1`, for which the relative growth is inactive: 1.02.
The figure for `COc1ccc(CN(C)C[C@@H]2OCCCC[C@@H](C)Oc3ccc(NS(=O)(=O)c4ccccc4)cc3C(=O)N([C@@H](C)CO)C[C@H]2C)cc1` is inactive: 0.967.
The figure for `COc1ccc(NC(=O)Nc2ccc3c(c2)C(=O)N([C@H](C)CO)C[C@H](C)[C@@H](CN(C)C(=O)Nc2ccc4c(c2)OCO4)OCCCC[C@H](C)O3)cc1` is inactive: 1.02; for `C[C@@H]1CN([C@@H](C)CO)C(=O)c2cc(NC(=O)C3CC3)ccc2O[C@H]1CN(C)Cc1ccc(C(=O)O)cc1` it is inactive: 0.965.

The record behind these values is the supplement of paper PMC9446081.
